In publication PMC4336329 (PLoS ONE, 2015):
The campaign covered roughly 310,000 compounds. About 2,200 (0.71%) showed an effect of 50% or more. Effects have a minus sign here. Some of the results follow.

The compounds below were run against human ether-à-go-go-related gene (hERG) potassium channel (human, UniProt Q12809) (assay: primary screen, population patch clamp on CHO cells stably expressing hERG).
Sequence of human ether-à-go-go-related gene (hERG) potassium channel (Q12809 whole entry, looked up): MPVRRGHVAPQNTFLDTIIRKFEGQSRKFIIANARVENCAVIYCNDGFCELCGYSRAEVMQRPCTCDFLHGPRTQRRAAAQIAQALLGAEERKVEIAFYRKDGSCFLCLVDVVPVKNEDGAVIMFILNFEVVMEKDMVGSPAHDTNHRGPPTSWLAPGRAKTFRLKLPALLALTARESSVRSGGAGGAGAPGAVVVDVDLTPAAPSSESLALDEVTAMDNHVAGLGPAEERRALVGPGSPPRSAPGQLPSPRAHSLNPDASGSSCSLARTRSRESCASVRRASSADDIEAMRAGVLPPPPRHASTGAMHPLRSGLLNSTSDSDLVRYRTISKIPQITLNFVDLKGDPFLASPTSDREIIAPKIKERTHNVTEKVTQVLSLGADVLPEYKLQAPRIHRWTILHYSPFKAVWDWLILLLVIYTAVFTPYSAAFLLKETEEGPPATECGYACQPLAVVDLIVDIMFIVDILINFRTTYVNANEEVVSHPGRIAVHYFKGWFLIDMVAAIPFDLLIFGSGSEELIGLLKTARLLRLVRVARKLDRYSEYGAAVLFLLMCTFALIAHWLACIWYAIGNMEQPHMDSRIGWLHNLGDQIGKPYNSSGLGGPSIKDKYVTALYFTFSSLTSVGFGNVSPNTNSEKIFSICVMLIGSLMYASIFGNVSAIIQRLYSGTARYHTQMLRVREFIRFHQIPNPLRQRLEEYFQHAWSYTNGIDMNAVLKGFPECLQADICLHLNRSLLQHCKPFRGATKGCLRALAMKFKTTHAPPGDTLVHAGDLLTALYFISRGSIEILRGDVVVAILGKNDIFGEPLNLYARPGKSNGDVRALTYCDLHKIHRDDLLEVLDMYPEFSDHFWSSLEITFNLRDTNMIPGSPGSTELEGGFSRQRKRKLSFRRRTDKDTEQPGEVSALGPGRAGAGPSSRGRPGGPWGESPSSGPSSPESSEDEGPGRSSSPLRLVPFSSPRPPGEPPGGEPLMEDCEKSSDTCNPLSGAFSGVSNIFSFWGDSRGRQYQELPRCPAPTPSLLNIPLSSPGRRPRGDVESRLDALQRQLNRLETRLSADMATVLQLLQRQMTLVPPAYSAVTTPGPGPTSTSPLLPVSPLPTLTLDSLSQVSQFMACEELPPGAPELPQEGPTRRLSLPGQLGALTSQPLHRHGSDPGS

Compound | hERG current change (%, negative = inhibition) at 1uM [%]
Cc1ccc(N2CC(C(=O)Nc3ccc4c(c3)OCO4)CC2=O)cc1 (stereo not drawn) | 8.67
COc1ccc(CNC(=O)CSc2ncn[nH]2)cc1OC | 17.6
CC(=O)c1ccc(S(=O)(=O)N(C)C(C)CCc2ccco2)cc1 (stereo not drawn) | 9.14
Cc1ccc(OP(N)(=O)Oc2ccc(C)cc2)cc1 | 8.04
Cc1cc(NC(=O)c2cccnc2)ccc1NC(=O)c1ccco1 | 22.7
COc1ccc(NS(=O)(=O)c2cc(NC(=O)c3ccco3)ccc2N2CCCC2)cc1 | -1.4
O=C1CCSc2cccc3cccc(c23)N1 | 2.17
Cc1cccc2nc(C(=O)Nc3cc(Cl)ccc3-n3cncn3)cn12 | 5.37
CCOc1ccc(C(CC(=O)O)NC(=O)COc2ccccc2)cc1 (stereo not drawn) | 14.5
CN(CC(=O)O/N=C(\N)c1ccc(Br)cc1)S(=O)(=O)c1ccccc1 | 6.17
CC(=O)Cc1nsc(NC(=O)c2ccc(-c3cc(C(F)(F)F)ccc3Cl)o2)n1 | 19
Cc1ccc(C)c(N2CCN(CCCNC(=O)Cn3cccc3C(=O)c3ccccc3)CC2)c1 | -19.7
COc1cccc(CNC(=O)c2nnn(-c3ccc(OC(F)(F)F)cc3)c2N)c1 | -6.5
CCC(=O)N1CCc2cc(S(=O)(=O)N3CCCCCC3)ccc21 | 16.1
O=C(CCC(=O)N1C[C@H]2C[C@@H](C1)c1cccc(=O)n1C2)NCc1cccc(C(F)(F)F)c1 | 10.4
Cc1cc(=O)oc2cc(N3C(=O)CC(Cc4ccccc4)C3=O)ccc12 (stereo not drawn) | 0.0956
CCOC(=O)c1cccc(NC(=O)C2CCN(S(=O)(=O)c3cnc[nH]3)CC2)c1 | 6.74
Cc1c(OC(C)C(=O)NCc2ccccn2)ccc2c3c(c(=O)oc12)CCC3 (stereo not drawn) | 30.3
Cc1nc(-c2nnc(SCC(=O)Nc3ccc(Cl)cc3)n2C)cs1 | 6.1
CCCCc1cc(=O)oc2cc(C)cc(OCC(=O)N3CCC(C(=O)O)(c4ccccc4)CC3)c12 | 0.325
CCN(CC)S(=O)(=O)c1cccc(-c2nnc(SCCOc3ccc(Cl)cc3)o2)c1 | 15.6
O=C(NCc1ccc(F)cc1)c1cccc(S(=O)(=O)N2CCOCC2)c1 | 4.55
CC1CC2=C(C(=O)O1)C(c1ccccc1)Nc1ccccc1N2 (stereo not drawn) | 12.8
CC(C)NS(=O)(=O)c1ccc(CCC(=O)NCc2ccncc2)cc1 | 7.1
